The record followed here is article doi:10.1101/2023.07.25.550453 (bioRxiv, 2023).

Like-named read-outs stand apart in the source and are kept apart here.

Assay [1] concerns the target T1, nuclear cap-binding complex (CBC: CBP80ΔNLS + CBP20), human (human, UniProt Q09161 20-790; P52298 1-156).
T1 sequence 1: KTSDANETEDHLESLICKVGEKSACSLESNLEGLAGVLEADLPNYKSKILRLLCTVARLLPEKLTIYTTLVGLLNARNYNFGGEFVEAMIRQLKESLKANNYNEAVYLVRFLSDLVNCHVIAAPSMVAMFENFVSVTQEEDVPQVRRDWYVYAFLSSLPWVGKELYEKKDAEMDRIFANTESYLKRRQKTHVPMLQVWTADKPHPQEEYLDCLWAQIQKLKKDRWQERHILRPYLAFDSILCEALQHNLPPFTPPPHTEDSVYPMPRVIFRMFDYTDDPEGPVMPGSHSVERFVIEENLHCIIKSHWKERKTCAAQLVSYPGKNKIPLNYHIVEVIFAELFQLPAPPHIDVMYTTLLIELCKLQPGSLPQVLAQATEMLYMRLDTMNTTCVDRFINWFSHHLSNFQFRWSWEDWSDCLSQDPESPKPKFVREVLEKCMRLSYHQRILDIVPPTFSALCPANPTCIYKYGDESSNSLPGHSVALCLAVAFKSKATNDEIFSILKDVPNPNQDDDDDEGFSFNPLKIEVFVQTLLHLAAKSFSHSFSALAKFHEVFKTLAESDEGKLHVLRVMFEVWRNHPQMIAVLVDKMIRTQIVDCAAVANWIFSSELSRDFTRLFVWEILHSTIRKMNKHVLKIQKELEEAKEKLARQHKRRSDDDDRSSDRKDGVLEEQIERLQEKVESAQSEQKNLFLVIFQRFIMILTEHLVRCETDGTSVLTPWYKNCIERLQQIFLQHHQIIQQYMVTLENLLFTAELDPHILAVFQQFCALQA
T1 sequence 2: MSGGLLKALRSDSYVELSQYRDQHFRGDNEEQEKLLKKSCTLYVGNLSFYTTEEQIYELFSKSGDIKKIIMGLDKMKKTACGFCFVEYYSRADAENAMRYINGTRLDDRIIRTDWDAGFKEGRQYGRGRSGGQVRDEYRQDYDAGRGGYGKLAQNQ
The assay is described as follows: SEC. In general terms: SEC sorts molecules by how far they enter the pores of the column.

The target in assay [2] is T1, nuclear cap-binding complex (CBC: …). The assay is described as follows: SEC. The source holds these as a separate data set.

B1: full-length PHAX E9R (natural protein)
chain: not shown
Turning to B1, the binding result in assay [1] is “binds”.

B2: full-length PHAX W118E (natural protein)
chain: not shown
Regarding B2, the binding result in assay [2] is given as “binds”.
